# ± gives the standard deviation of the averaged measurements. Over roughly 4,100 sequences, “relative kcat/Km (krel) vs genomic leader AAAGAU” has its median near 1.7; the highest 2% begin near 6.5. The list shows a part of the results, in another mix than the full data.
# Molecular target: T1, E. coli RNase P holoenzyme (M1 P RNA + rnpA protein) (UniProt P0A7Y8)
# T1 sequence: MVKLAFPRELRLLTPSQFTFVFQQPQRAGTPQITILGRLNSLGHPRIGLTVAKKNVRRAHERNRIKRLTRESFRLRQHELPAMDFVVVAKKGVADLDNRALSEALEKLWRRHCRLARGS
# Test: relative kcat/Km (krel) vs genomic leader AAAGAU (relative (reference leader = 1)); higher = faster RNase P cleavage
# Protocol: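 HTS-Kin: a pool of ptRNA-Met (21C construct) with all 4096 combinations of 5' leader nucleotides N(-6) to N(-1) was processed in vitro by E. coli RNase P (P RNA + rnpA/C5 protein) under multiple-turnover conditions at 37 C, pH 8, 17.5 mM MgCl2. Residual substrate was Illumina-sequenced at several fractions reacted, and relative kcat/Km (krel) was computed by internal competition kinetics, calibrated to the genomic leader (AAAGAU = 1). The listed hexamer is the varied N(-6)..N(-1) leader (DNA letters), and it sits between a fixed 5' stem-loop flank (GCAUGCACGAAAGUGCGUGCUAUGAA) and the mature tRNA-Met starting GGCUACGUAGCUCAGUUGG. Two technical replicates are averaged.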
# [1] = fraction of substrate reacted: ~9-10% (9.79% repeat 1, 9.1% repeat 2)
# [2] = fraction of substrate reacted: ~13-16% (15.68% repeat 1, 13.17% repeat 2)
# [3] = fraction of substrate reacted: ~26-29% (28.66% repeat 1, 26.4% repeat 2)
Sequence,relative kcat/Km [1],relative kcat/Km [2],relative kcat/Km [3]
GGATGA,1.55 ± 1.2,2.3 ± 1.3,3.71 ± 1.9
AAGAGG,0.842 ± 0.047,0.536 ± 0.26,1.0512 ± 0.001
CCTGAT,0.672 ± 0.52,,1.55 ± 1
GTTCTA,1.83 ± 0.032,1.71 ± 0.31,2.36 ± 0.68
GTATCC,2.97 ± 1.6,3.3 ± 0.46,3.72 ± 1.4
GTACCT,1.69 ± 0.45,2.76 ± 0.68,2.94 ± 1.6
CCGAAG,,1.05 ± 0.22,1.44 ± 0.68
TTTCGT,,,2.16 ± 1.8
TAGGGT,,,1.75 ± 0.45
AACTTA,2.69 ± 1.8,2.8 ± 0.12,3.83 ± 1.2
ACATGC,1.8 ± 0.56,2.63 ± 0.62,3.57 ± 1.8
GGTTTT,1.18 ± 0.64,1.22 ± 0.76,1.8 ± 0.68
ATTCCA,2.17 ± 0.89,2.11 ± 0.63,1.93 ± 0.82
TTTTGG,0.508 ± 0.012,,0.844 ± 0.31
TATGAA,2.69 ± 0.86,3.24 ± 0.39,4.07 ± 1.6
TCAGGA,,1.1 ± 1.1,1.19 ± 0.54
CAGTTA,2.56 ± 0.33,2.7 ± 0.51,3.56 ± 1.1
CTCTAT,4.59 ± 0.51,6.38 ± 1.7,
GCCAAA,2.15 ± 0.18,2.72 ± 0.12,4.25 ± 0.74
GCCCAG,0.499 ± 0.44,0.933 ± 0.79,3 ± 0.76
TAGAAA,1.9 ± 0.38,3.05 ± 1.1,4.51 ± 2
GCTGAA,1.33 ± 0.8,0.99 ± 0.99,1.35 ± 0.59
CGTGTA,0.848 ± 0.08,1.11 ± 0.36,1.02 ± 0.16

Sequence,relative kcat/Km [1],relative kcat/Km [2],relative kcat/Km [3]
CGCTGC,3.06 ± 0.66,2.86 ± 0.66,3.86 ± 1.2
GGCAGC,1.55 ± 1.2,1.84 ± 0.44,3.11 ± 0.042
ATACCA,0.754 ± 0.4,1.03 ± 0.38,1.46 ± 0.93
GGCTTG,,,0.827 ± 0.34
CCTCTT,2.21 ± 0.49,1.79 ± 0.48,2.21 ± 0.57
GGACCC,1.64 ± 0.42,1.16 ± 0.014,1.33 ± 0.096
GACAAA,4.01 ± 1.6,4.49 ± 0.5,6.91 ± 2.5
ATACTC,1.56 ± 1.5,1.51 ± 0.52,1.59 ± 0.2
GAGATA,1.56 ± 0.45,1.57 ± 0.58,1.89 ± 0.58
TTCAGT,,2.35 ± 1.7,3.37 ± 2.9
AAACTA,1.54 ± 1.2,1.15 ± 0.42,1.33 ± 0.14
CCCATG,,0.298 ± 0.011,1.43 ± 0.93
CTTCAA,3.2 ± 2.3,3.11 ± 0.12,3.96 ± 1.1
AGACCC,2.19 ± 0.19,1.61 ± 1.1,2.21 ± 1.2
CCGAGC,2.29 ± 0.63,1.29 ± 0.24,1.79 ± 0.18
ATTCAC,3.25 ± 1.4,4.01 ± 0.31,5.85 ± 2.2
GGATCT,1.18 ± 0.79,1.69 ± 0.9,2.17 ± 0.58
CTTAGC,2.96 ± 1.3,3.29 ± 1.3,3.62 ± 0.95
GAGTAA,2.22 ± 0.88,2.9 ± 0.51,3.73 ± 1.1
AAAACA,1.07 ± 0.96,0.739 ± 0.38,1.09 ± 0.23
GATTGT,0.637 ± 0.52,1.08 ± 1,
AGTTCA,2.22 ± 0.21,2.82 ± 0.86,4.24 ± 1.9
CGCTGG,0.49 ± 0.25,,

Sequence,relative kcat/Km [1],relative kcat/Km [2],relative kcat/Km [3]
AGGCTA,1.03 ± 0.18,0.94 ± 0.074,0.958 ± 0.43
CGAGTC,0.979 ± 0.076,0.341 ± 0.15,0.942 ± 0.19
GGTCGC,1.81 ± 0.88,2.0828 ± 0.002,3.37 ± 1.1
TTACGA,2.09 ± 0.19,3.12 ± 0.7,4.55 ± 1.8
GCCCCT,2.4 ± 0.74,2.1 ± 0.63,3.54 ± 1.2
ATTTTG,,,0.929 ± 0.33
CAATTT,2.09 ± 0.91,2.52 ± 0.44,3.35 ± 1.1
TGCTTC,2.79 ± 0.96,2.83 ± 0.76,3.73 ± 1.2
ACGGCC,0.927 ± 0.59,0.652 ± 0.11,0.509 ± 0.061
CAATCC,2.1 ± 1.4,2.09 ± 0.56,2.17 ± 0.12
CGTGAG,,,0.73 ± 0.48
GGAGAA,0.871 ± 0.17,1.33 ± 0.072,2.05 ± 0.28
CACCCT,2.05 ± 0.84,2.01 ± 0.14,3.13 ± 0.71
GCTACG,1.24 ± 0.4,,1.37 ± 0.71
ACCATA,2.8 ± 1.8,2.2 ± 0.51,3.64 ± 0.82
TCAACG,,0.657 ± 0.31,
GCGGAT,,,1.1 ± 0.55
GGCAAG,,1.55 ± 0.4,2.65 ± 0.24
GTACGG,,,0.833 ± 0.17
GGACTC,1.48 ± 0.25,1.36 ± 0.13,1.47 ± 0.4
GAGAGA,2.01 ± 0.67,2.43 ± 0.81,2.73 ± 0.94
GTAGGT,,,2 ± 0.94
AACGGA,,,1.36 ± 0.76

Sequence,relative kcat/Km [1],relative kcat/Km [2],relative kcat/Km [3]
TCACAG,1.02 ± 0.62,0.504 ± 0.44,1.92 ± 0.045
GGTGAA,1.14 ± 0.78,1.13 ± 0.16,1.4 ± 0.08
GCCAAC,1.34 ± 0.25,1.28 ± 1.1,3.94 ± 1
GATCGG,0.215 ± 0.12,,
TAACAC,3.03 ± 1.2,3.51 ± 0.075,4.77 ± 1.9
TAATCA,2.23 ± 1.3,1.61 ± 0.08,2.53 ± 0.76
TGGGCG,,,0.478 ± 0.11
ACAGAA,1.81 ± 1.7,,2.3 ± 0.59
ACTGAT,1.17 ± 0.42,1.11 ± 0.03,1.29 ± 0.43
TTTGAA,2.9 ± 1.1,3.37 ± 0.8,4.46 ± 1.2
TCACGG,0.543 ± 0.47,,0.429 ± 0.19
TCGGCT,0.836 ± 0.18,0.478 ± 0.28,
TGTAAC,2.99 ± 1.7,3.99 ± 0.054,5.88 ± 2.4
GAGATC,1.8 ± 0.46,1.44 ± 0.09,2.21 ± 0.99
ATGCAC,1.66 ± 0.36,1.07 ± 0.31,2.04 ± 0.13
AGGCTC,,,0.722 ± 0.43
TCTACA,1.43 ± 0.68,1.87 ± 0.44,2.46 ± 1.1
CGTACA,1.34 ± 0.39,1.26 ± 0.3,2.36 ± 0.56
AACGCA,2.99 ± 1.6,3.18 ± 0.58,4.32 ± 1.4
ACATCT,2.62 ± 1.1,3.25 ± 0.78,4.12 ± 1.9
GACGAG,,1.49 ± 0.19,3.3 ± 0.29
GCTGCT,0.72 ± 0.62,,0.621 ± 0.4
TCCGGC,0.889 ± 0.37,,1.66 ± 0.94

Sequence,relative kcat/Km [1],relative kcat/Km [2],relative kcat/Km [3]
AGCCCA,1.18 ± 0.31,1.51 ± 1.4,1.81 ± 0.95
ACTATT,2.31 ± 1.3,2.08 ± 0.34,2.89 ± 1.1
AGTATA,2.41 ± 0.73,2.99 ± 0.27,4.7 ± 2
AGTGTT,0.435 ± 0.024,,1.34 ± 0.99
AGGTCA,,1.42 ± 0.46,1.25 ± 0.43
GCGCGG,0.556 ± 0.25,,0.393 ± 0.23
GTAATT,1.67 ± 1.2,2.308 ± 0.0035,2.96 ± 0.9
TAATTG,,,1.08 ± 0.47
ACAGCG,,,1.17 ± 0.16
GCCTAG,2.58 ± 1.6,1.57 ± 0.49,3.67 ± 1.2
CCGTTA,2.09 ± 0.35,2.33 ± 0.74,2.95 ± 0.62
AGAAAA,3.05 ± 0.94,2.65 ± 0.37,3.92 ± 1.1
ACCCCC,2.28 ± 0.72,1.22 ± 0.62,3.15 ± 1.3
CGCGTA,2.07 ± 0.78,1.48 ± 0.56,2.18 ± 0.99
CTATCC,1.8 ± 0.78,1.58 ± 0.19,2.56 ± 0.37
GGCAAA,2.21 ± 1,3.13 ± 0.17,3.46 ± 0.93
CCTGGG,,0.226 ± 0.082,
CGAATA,2.14 ± 0.42,1.62 ± 0.12,2.57 ± 1
GTTAGG,,,1.48 ± 0.18
TAAACA,1.85 ± 0.81,1.35 ± 0.24,1.75 ± 0.52
TGGTAT,0.93 ± 0.51,,1.49 ± 1
CAGATC,2.45 ± 1.8,1.97 ± 0.33,2.55 ± 0.25
ATCGTC,2.63 ± 0.57,3.09 ± 0.84,5.08 ± 2.1

Sequence,relative kcat/Km [1],relative kcat/Km [2],relative kcat/Km [3]
TGTCTT,3.02 ± 0.56,3.83 ± 1.2,4.75 ± 1.9
ACAGCC,2.4 ± 1.1,2.1 ± 0.58,2.21 ± 0.81
CTGCTT,,,1.22 ± 0.51
CGCTAT,3.49 ± 0.87,4.44 ± 1.6,5.95 ± 2.4
CATTCG,0.596 ± 0.4,,1.47 ± 0.035
CGATCC,1.75 ± 0.92,2.33 ± 0.088,2.53 ± 0.38
TATGAG,0.55 ± 0.25,0.152 ± 0.019,1.2 ± 0.038
GGAATC,,1.06 ± 0.53,1.22 ± 0.75
AACGTA,1.92 ± 0.44,2.44 ± 0.64,3.06 ± 1.4
ATTCTC,1.98 ± 1.2,2.42 ± 0.093,2.25 ± 0.56
GAACAT,2.55 ± 0.48,2.63 ± 0.68,4.14 ± 1.9
ACCTCA,3.35 ± 1.8,3.24 ± 0.27,4 ± 1.2
GTACAG,,,1.99 ± 0.4
AACAGT,,,2.24 ± 2
CCAGAT,2.9 ± 1.7,1.93 ± 0.26,2.22 ± 0.35
AAATGT,,,2.05 ± 2
TGGAAC,,,0.833 ± 0.35
CTTCTC,2.7 ± 0.99,2.2 ± 0.35,2.77 ± 0.98
AAGCCT,1.05 ± 0.53,1.47 ± 0.083,1.34 ± 0.26
ACTTAC,3.88 ± 2.3,4.09 ± 0.096,5.29 ± 1.6
